Some of the results follow. Antibody binding of pooled human sera (four to six donors per pool; dilution not stated) to peptides of the Trypanosoma cruzi antigen TSSA on microarrays. Quantile-normalised fluorescence in arbitrary units, mean of duplicate arrays; higher = more binding. No active / inactive call. The uninfected pools are read here as the healthy donors of the same country. The strongest signals lie near the top of the scale (about 60,000).
Columns and labels:
Experiment in all cases: antibody binding signal (normalised fluorescence) (arbitrary fluorescence units); higher = stronger serum antibody binding to peptide
[1] = system: pooled sera of chronic Chagas disease patients, Argentina
Experimental: (§1)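 Microarray of 15-residue peptides over residues 30-55 of Trypanosoma cruzi TSSAII, each with 1 to 10 substitutions at naturally variable positions, probed with one serum pool per country.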

[2] = system: pooled sera of chronic Chagas disease patients, Bolivia
Experimental: as §1

[3] = system: pooled sera of chronic Chagas disease patients, Brazil
Experimental: as §1

[4] = system: pooled sera of chronic Chagas disease patients, Colombia
Experimental: as §1

[5] = system: pooled sera of chronic Chagas disease patients, Mexico
Experimental: as §1

[6] = system: pooled sera of chronic Chagas disease patients, USA
Experimental: as §1

[7] = system: pooled sera of uninfected people, Argentina
Experimental: as §1

[8] = system: pooled sera of uninfected people, Bolivia
Experimental: as §1

[9] = system: pooled sera of uninfected people, Brazil
Experimental: as §1

[10] = system: pooled sera of uninfected people, Colombia
Experimental: as §1

[11] = system: pooled sera of uninfected people, Mexico
Experimental: as §1

[12] = system: pooled sera of uninfected people, USA
Experimental: as §1

Row | Sequence | antibody binding signal [1] | antibody binding signal [2] | antibody binding signal [3] | antibody binding signal [4] | antibody binding signal [5] | antibody binding signal [6] | antibody binding signal [7] | antibody binding signal [8] | antibody binding signal [9] | antibody binding signal [10] | antibody binding signal [11] | antibody binding signal [12]
1 | ENKPAAGEAPSPSGA | 2140 | 3480 | 28600 | 392 | 318 | 17700 | 203 | 305 | 187 | 86.7 | 105 | 180
2 | GTEKKPATGETPSPP | 31300 | 21800 | 28900 | 2250 | 3970 | 22100 | 160 | 1040 | 814 | 361 | 1650 | 1090
3 | GKENKAAAGGAPSQP | 825 | 233 | 7900 | 3530 | 2360 | 8450 | 302 | 94.6 | 93.4 | 105 | 86.2 | 94.7
4 | SGKDNKAAAGETPSQ | 772 | 323 | 7040 | 2020 | 1080 | 1660 | 182 | 370 | 136 | 710 | 115 | 117
5 | KDNKAATGGTPSPPG | 261 | 623 | 317 | 260 | 271 | 258 | 175 | 798 | 237 | 152 | 106 | 103
6 | SGTDKKAATGGAPSP | 2300 | 224 | 3240 | 4390 | 2130 | 1750 | 435 | 685 | 128 | 760 | 445 | 195
7 | SGTENKPATGETPSQ | 39000 | 33800 | 41500 | 218 | 410 | 30600 | 868 | 1220 | 337 | 122 | 1820 | 140
8 | TENKAATGETPSPPG | 24100 | 5000 | 21500 | 230 | 210 | 9910 | 137 | 211 | 173 | 131 | 151 | 1960
9 | GTEKKTATGGAPSPS | 1420 | 235 | 980 | 3760 | 1140 | 1440 | 322 | 629 | 115 | 117 | 145 | 133
10 | KKPAAGEAPSPPGAS | 255 | 183 | 7110 | 195 | 114 | 9610 | 314 | 282 | 98.3 | 150 | 80.8 | 425
11 | STPPSGTEKKTAAGE | 33300 | 32800 | 29500 | 226 | 8980 | 4820 | 889 | 297 | 295 | 211 | 144 | 93.9
12 | GKDKKPAAGGTPSQS | 217 | 225 | 180 | 1240 | 519 | 453 | 115 | 83.1 | 515 | 278 | 122 | 90.8
13 | KKPATGGTPSPPGAS | 388 | 291 | 299 | 906 | 330 | 250 | 411 | 406 | 368 | 213 | 104 | 486
14 | TEKKPATGGTPSPSG | 1690 | 627 | 680 | 3260 | 1200 | 1630 | 229 | 496 | 1280 | 307 | 199 | 917
15 | GKEKKTATGETPSPS | 2190 | 433 | 542 | 1760 | 3100 | 6250 | 218 | 127 | 93.1 | 108 | 135 | 764
16 | GTDKKTATGGAPSQP | 1220 | 317 | 2300 | 2950 | 1340 | 1050 | 340 | 449 | 122 | 103 | 231 | 155
17 | SGKDNKPATGGTPSP | 944 | 270 | 9140 | 965 | 954 | 1360 | 495 | 645 | 203 | 439 | 170 | 128
18 | GKDNKAATGEAPSPS | 28800 | 17600 | 31800 | 10000 | 10400 | 27000 | 272 | 298 | 113 | 392 | 85.3 | 116
19 | GTDNKTAAGGAPSPS | 384 | 289 | 19600 | 4800 | 909 | 525 | 341 | 654 | 1840 | 219 | 368 | 199
20 | TENKTATGGTPSPPG | 28300 | 1050 | 474 | 351 | 417 | 424 | 238 | 168 | 349 | 344 | 339 | 157
21 | TENKTAAGETPSPPG | 25500 | 280 | 896 | 181 | 339 | 2120 | 188 | 224 | 198 | 154 | 170 | 1010
22 | GKEKKPATGETPSQP | 24900 | 3600 | 32400 | 6470 | 9860 | 20200 | 245 | 170 | 124 | 125 | 506 | 304
23 | PSGKDNKAAAGEAPS | 4230 | 1250 | 7420 | 9190 | 5820 | 10600 | 378 | 401 | 150 | 158 | 95.2 | 141
24 | SGTDKKTAAGETPSQ | 251 | 718 | 2470 | 2790 | 373 | 1120 | 169 | 288 | 282 | 764 | 303 | 144
25 | GKEKKPAAGEAPSPS | 2640 | 294 | 1180 | 1750 | 3180 | 11700 | 135 | 78.7 | 82.1 | 113 | 78.4 | 268

Row | Sequence | antibody binding signal [1] | antibody binding signal [2] | antibody binding signal [3] | antibody binding signal [4] | antibody binding signal [5] | antibody binding signal [6] | antibody binding signal [7] | antibody binding signal [8] | antibody binding signal [9] | antibody binding signal [10] | antibody binding signal [11] | antibody binding signal [12]
26 | KDKKAATGETPSQSG | 476 | 260 | 6630 | 165 | 212 | 6840 | 297 | 106 | 102 | 212 | 102 | 104
27 | KDNKPAAGGAPSPSG | 117 | 222 | 1180 | 1170 | 173 | 503 | 484 | 226 | 162 | 155 | 216 | 149
28 | DNKPAAGEAPSPPGA | 843 | 1390 | 33000 | 293 | 139 | 17000 | 99 | 207 | 263 | 139 | 185 | 95.3
29 | KENKPATGEAPSPSG | 50400 | 45400 | 51100 | 328 | 886 | 45400 | 1000 | 837 | 305 | 205 | 272 | 221
30 | TSSTPPSGTENKTAT | 47800 | 51200 | 51700 | 332 | 3150 | 30500 | 3820 | 610 | 417 | 631 | 576 | 582
31 | TISTPPSGKENKPAA | 20800 | 8590 | 23300 | 1140 | 6790 | 13200 | 5300 | 2160 | 369 | 685 | 257 | 903
32 | PSGKDKKTAAGEAPS | 3490 | 3490 | 2880 | 6930 | 4690 | 5530 | 311 | 218 | 119 | 571 | 75.7 | 112
33 | GTEKKAAAGETPSPS | 548 | 277 | 658 | 721 | 742 | 4080 | 139 | 867 | 168 | 189 | 337 | 2050
34 | SGTDNKPAAGETPSQ | 5730 | 1310 | 42500 | 2650 | 267 | 2810 | 107 | 670 | 284 | 272 | 350 | 194
35 | DNKPAAGGTPSPPGA | 181 | 519 | 494 | 1350 | 219 | 210 | 179 | 614 | 1180 | 547 | 356 | 126
36 | GKDKKTATGGAPSPP | 553 | 249 | 245 | 1560 | 545 | 760 | 213 | 103 | 99.2 | 106 | 103 | 106
37 | STPPSGKENKAAAGG | 28100 | 3510 | 10900 | 1070 | 4530 | 3850 | 3200 | 1190 | 145 | 867 | 145 | 365
38 | TENKPAAGETPSQSG | 44600 | 959 | 21000 | 345 | 444 | 3860 | 164 | 409 | 238 | 178 | 230 | 161
39 | SGKENKTAAGETPSQ | 4900 | 3830 | 19300 | 7430 | 5430 | 18400 | 7180 | 3230 | 340 | 592 | 874 | 185
40 | PPSGTDNKPATGGTP | 27100 | 41200 | 48500 | 3800 | 3790 | 15600 | 972 | 1240 | 1110 | 745 | 1020 | 422
41 | SGKDKKTATGEAPSP | 9530 | 4800 | 5040 | 629 | 487 | 15200 | 204 | 96 | 99.5 | 222 | 85 | 105
42 | ENKPATGETPSQSGA | 38500 | 38100 | 40800 | 286 | 455 | 29200 | 344 | 453 | 337 | 107 | 2030 | 223
43 | KTATGGTPSPSGASS | 442 | 297 | 795 | 360 | 1990 | 316 | 347 | 112 | 160 | 226 | 91.9 | 259
44 | KDKKAAAGEAPSPPG | 204 | 207 | 669 | 199 | 188 | 7530 | 157 | 72.8 | 86 | 96 | 77.8 | 88.7
45 | GKDNKTAAGGTPSQS | 632 | 204 | 202 | 2950 | 562 | 1560 | 203 | 107 | 211 | 148 | 309 | 129
46 | TENKTAAGGAPSPSG | 26500 | 629 | 377 | 5710 | 634 | 395 | 439 | 192 | 687 | 209 | 459 | 246
47 | TDNKAATGEAPSPSG | 25700 | 36500 | 32700 | 74.8 | 136 | 29000 | 166 | 276 | 202 | 115 | 106 | 117
48 | ISTPPSGKDNKAATG | 4800 | 746 | 2630 | 388 | 16400 | 2400 | 270 | 489 | 120 | 148 | 98.8 | 158
49 | PPSGKDNKAATGEAP | 21100 | 28100 | 25300 | 544 | 4090 | 23400 | 385 | 501 | 217 | 276 | 125 | 183
50 | EKKPATGGAPSPPGA | 1590 | 1590 | 1110 | 2550 | 1150 | 2290 | 495 | 1500 | 218 | 163 | 168 | 613

Source: the supplement of paper PMC10441789
